Laboratory results: PubChem BioAssay AID602233 (National Center for Advancing Translational Sciences (NCATS), 2012)
Out of some 380,000 compounds screened, about 170 (0.045%) were called active. The shares of active, inactive and inconclusive entries below differ from those in the screen. Calls follow the shape of the dose curve; as a rule, active = well fitted inhibition curve with a large enough effect; inconclusive = small, poorly fitted or top-dose-only effect; inactive = no such curve, though single readings can be large or run the other way. Potencies of inconclusive entries are left out as doubtful fits.

biological target: Phosphoglycerate kinase, glycosomal (Trypanosoma brucei brucei) (UniProt P07378); test: qHTS Assay to Find Inhibitors of Phosphoglycerate Kinase; details: PGK/GAPDH coupled, Kinase-Glo luminescence, 60 min; series mostly up to 57.5 µM; activity change, negative = inhibition: at the top concentration; also: nearly all actives have a fitted effect of over 60% in size
Summary of the method: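 Luminescent ATP detection (Kinase-Glo Plus) follows a 60-minute room-temperature incubation, with wells lacking PGK as controls. Buffer: 100 mM TEA (pH 7.6), 5 mM MgCl2, 0.01% Tween-20. Coupling enzyme GAPDH (100 nM final) supplies unstable 1,3-BPG in-well.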
% is scaled to controls: 0 for no effect and ±100 for the full control effect; potency is read from the fitted curve at half-maximal effect; tags tell the direction and shape of the fitted curve.

SMILES	Potency	outcome	activity change, negative = inhibition
O=C(Nc1ccc(-c2nc3cccnc3s2)cc1)C1CCCO1 (stereo unspecified)	inconclusive [inhibitor, single point]		
CSc1ccc(/C=C/c2nc3ccccc3n2S(=O)(=O)c2ccc(Br)cc2)cc1	inconclusive [inhibitor, partial curve, poor fit]		
C[C@H]1c2cccc(O)c2C(O)=C2C(=O)[C@]3(O)C(O)=C(C(N)=O)C(=O)[C@@H](N(C)C)C3[C@@H](O)C21 (stereo partly specified)		inactive	
O=C(c1ccccc1)c1cc2ccc(O)cc2oc1=O	inconclusive [inhibitor, partial curve, poor fit]		
O=C(Nc1ccc(OCC(F)(F)C(F)F)c(C(F)(F)F)c1)c1ccccc1O			inactive: -4.97%
O=S(=O)(c1ccc(NC(=S)NC23CC4CC(CC(C4)C2)C3)cc1)N1CCCCC1	inconclusive [inhibitor, partial curve, poor fit]		
Cc1ccc(C2C=C(c3ccccc3)Nc3nc(NS(=O)(=O)c4ccc(C)cc4)nn32)cc1 (stereo unspecified)			inactive: 2.64%
Cc1cc(=O)n(Cc2ccccc2)c2c1c(C)nn2-c1ccccc1			inactive: 0.892%
Oc1cc2c(cc1C(c1ccc(Cl)c(Cl)c1)N1CCCC1)OCO2 (stereo unspecified)			inactive: 6.52%
CCOc1cc(/C=C2\C(=N)N3N=C(S(C)(=O)=O)SC3=NC2=O)ccc1OCCOc1cccc(OC)c1	inconclusive [inhibitor, partial curve, poor fit]		
CC(C)Oc1ccc(C(CC(=O)NCc2ccco2)c2ccccc2)cc1 (stereo unspecified)	inconclusive [inhibitor, single point]		
O=C(/C=C/c1ccco1)N1CCN(S(=O)(=O)c2ccccc2)CC1	inconclusive [inhibitor, partial curve, poor fit]		
Cc1cc(/C=C(/C#N)c2nc3ccccc3[nH]2)c(C)n1-c1cc(C(=O)O)cc(C(=O)O)c1	inconclusive [inhibitor, single point]		
Cc1ccc(CCNC(=O)c2cc3cc(S(=O)(=O)N4CCCCC4)ccc3n2C)cc1			inactive: 0.688%
CC1CN(c2ccc(NC(=S)Nc3ccc(N4CC(C)OC(C)C4)cc3)cc2)CC(C)O1 (stereo unspecified)	inconclusive [inhibitor, partial curve, poor fit]		
O=C(CN1C(=O)COc2ccc(S(=O)(=O)N3CCOCC3)cc21)N1CCN(c2ccc(Cl)cc2)CC1			inactive: -2.26%
CCOC(=O)c1cnc(-n2nc(C)cc2C)nc1Nc1ccc(N(C)C)cc1			inactive: -8.68%
CC1(C)CC(=O)C2=C(C1)OC(c1ccncc1)C(C#N)=C2N (stereo unspecified)			inactive: -0.0498%
CN(CCO)S(=O)(=O)c1ccc2c(c1)C(=NO)c1cc(S(=O)(=O)N(C)CCO)ccc1-2		inactive	
Cc1ccccc1N=C1NC(=O)/C(=C/c2cccn2-c2cccc(C(=O)O)c2)S1	inconclusive [inhibitor, single point]		
CCN(CC(=O)Nc1ccc(NC(C)=O)cc1)C(=O)c1cc(-c2ccccc2)nn1-c1ccccc1			inactive: -9.25%

SMILES	Potency	outcome	activity change, negative = inhibition
O=C1/C(=C/c2ccco2)CCc2ccccc21	inconclusive [inhibitor, single point]		
Cc1cc(C)n(Cc2ccc(C(=O)N/N=C/c3ccc(-c4ccc([N+](=O)[O-])cc4)o3)o2)n1	inconclusive [inhibitor, partial curve]		
O=C(CNC(=O)c1ccc(-c2ccccc2)cc1)OCc1ccc(Br)cc1	inconclusive [inhibitor, single point]		
O=C(CSc1nnc(-c2ccco2)c(-c2ccco2)n1)Nc1ccccc1	inconclusive [inhibitor, partial curve, poor fit]		
O=C(O)CCc1ccc(S(=O)(=O)Nc2ccc(OCc3ccccc3)cc2)cc1	inconclusive [inhibitor, partial curve, poor fit]		
c1c2c(cc3sc(N4CCCCC4)nc13)OCO2	inconclusive [inhibitor, partial curve]		
COc1ccc(-c2ccc(NC(=O)c3ccc(Br)o3)cc2)nn1	inconclusive [inhibitor, partial curve, poor fit]		
Cc1cccc(C(=O)Nc2ccc(C(=O)N/N=C/c3ccco3)cc2)c1	inconclusive [inhibitor, single point]		
C#CCOCCOCCOCCNc1nc(N2CCN(C(=O)CCCCCCCCCCNC(=O)[C@@H](CCSC)n3cc(CCO)nn3)CC2)nc(N2CCN(C(=O)CCCCCCCCCCNC(=O)[C@H](CCSC)n3cc(CCO)nn3)CC2)n1		inactive	
O=C1[C@H]2CCC=C[C@H]2[C@H](c2ccccc2Br)N1Cc1ccccc1			inactive: -5.36%
COc1ccc2c(c1)OC/C(=C/c1cccs1)C2=O			inactive: -15.2%
Cc1cccc(/C(N)=N/OC(=O)c2ccoc2C)c1	inconclusive [inhibitor, partial curve, poor fit]		
Cc1cc(C)c(/C=C/c2onc(C)c2S(=O)(=O)N2CCC(C(=O)Nc3ccc(Cl)cc3C)CC2)c(C)c1			inactive: 1.64%
CN(CC(=O)Nc1c(Cl)cccc1Cl)C(=O)c1cccc(-n2cccc2)c1	inconclusive [inhibitor, single point]		
O=C1c2ccccc2NC2(CCCC2)N1NS(=O)(=O)c1ccccc1	inconclusive [inhibitor, single point]		
C/C=C\C=C/C(=O)Nc1cccc(C2=NOC3(C2)C[C@@H](C(N)=O)N(C(=O)/C=C/C=C\C)C3)c1 (stereo partly specified)	inconclusive [inhibitor, single point]		
CC(=O)c1sc(NC(=O)COc2ccc(C(C)C)c(C)c2)nc1C	inconclusive [inhibitor, single point]		
COc1ccc(Cn2c(C)nc3c(c2=O)c2nc4ccccc4nc2n3Cc2ccco2)cc1	inconclusive [inhibitor, single point]		
Clc1cc(CSc2ccccc2)nc(-c2ccccc2)n1	inconclusive [inhibitor, single point]		
O=C(Oc1ccc(-c2nc(-c3ccccn3)no2)cc1)c1ccccc1	inconclusive [inhibitor, partial curve]		
